In experiment [1] the target is T1, GST-SifA (Salmonella) (UniProt Q56061).
T1 sequence: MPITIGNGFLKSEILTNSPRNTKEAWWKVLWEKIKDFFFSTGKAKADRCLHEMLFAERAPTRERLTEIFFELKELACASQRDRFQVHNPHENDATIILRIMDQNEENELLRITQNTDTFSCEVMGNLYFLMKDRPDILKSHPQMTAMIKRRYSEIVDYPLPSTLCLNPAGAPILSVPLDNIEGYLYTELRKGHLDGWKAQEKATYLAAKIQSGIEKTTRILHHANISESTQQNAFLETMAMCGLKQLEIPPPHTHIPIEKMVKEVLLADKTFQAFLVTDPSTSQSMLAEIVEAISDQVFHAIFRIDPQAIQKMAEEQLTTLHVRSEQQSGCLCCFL
Nature of the experiment: pull-down; GST-SifA immobilised on glutathione-Sepharose beads, incubated with lysates of HEK293 cells transfected with FLAG-ELMO1 FL, NT or CT; blot with anti-FLAG; only the target purified.

The chains behind the UniProt entries cited, without tags or fusion partners. Where a name states a change or a piece, a line headed by the entry shows the natural chain unless it says otherwise.
UniProt Q9AJW7: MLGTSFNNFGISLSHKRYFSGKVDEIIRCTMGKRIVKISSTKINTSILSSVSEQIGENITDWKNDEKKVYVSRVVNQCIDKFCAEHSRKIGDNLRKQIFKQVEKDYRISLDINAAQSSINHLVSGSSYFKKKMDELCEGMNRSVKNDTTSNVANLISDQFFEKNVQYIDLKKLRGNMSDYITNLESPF
UniProt Q92556: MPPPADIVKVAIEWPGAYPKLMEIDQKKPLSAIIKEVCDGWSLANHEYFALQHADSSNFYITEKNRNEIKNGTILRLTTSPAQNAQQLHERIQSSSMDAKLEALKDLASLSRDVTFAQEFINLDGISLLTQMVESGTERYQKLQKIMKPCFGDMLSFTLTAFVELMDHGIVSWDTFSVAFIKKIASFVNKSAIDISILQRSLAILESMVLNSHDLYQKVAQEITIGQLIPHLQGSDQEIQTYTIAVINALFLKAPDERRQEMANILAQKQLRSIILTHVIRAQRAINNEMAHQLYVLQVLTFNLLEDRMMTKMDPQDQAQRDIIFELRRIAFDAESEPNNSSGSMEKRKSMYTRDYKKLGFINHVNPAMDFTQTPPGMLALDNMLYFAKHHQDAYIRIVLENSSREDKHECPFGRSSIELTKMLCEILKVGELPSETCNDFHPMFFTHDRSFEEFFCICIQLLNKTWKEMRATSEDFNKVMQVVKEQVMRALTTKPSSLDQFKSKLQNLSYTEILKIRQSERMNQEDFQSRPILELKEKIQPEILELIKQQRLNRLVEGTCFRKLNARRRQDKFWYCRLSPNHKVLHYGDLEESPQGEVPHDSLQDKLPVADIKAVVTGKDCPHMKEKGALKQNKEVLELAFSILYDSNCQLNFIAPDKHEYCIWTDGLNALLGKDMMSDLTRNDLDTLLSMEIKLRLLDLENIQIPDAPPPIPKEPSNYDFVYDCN
UniProt Q8BPU7: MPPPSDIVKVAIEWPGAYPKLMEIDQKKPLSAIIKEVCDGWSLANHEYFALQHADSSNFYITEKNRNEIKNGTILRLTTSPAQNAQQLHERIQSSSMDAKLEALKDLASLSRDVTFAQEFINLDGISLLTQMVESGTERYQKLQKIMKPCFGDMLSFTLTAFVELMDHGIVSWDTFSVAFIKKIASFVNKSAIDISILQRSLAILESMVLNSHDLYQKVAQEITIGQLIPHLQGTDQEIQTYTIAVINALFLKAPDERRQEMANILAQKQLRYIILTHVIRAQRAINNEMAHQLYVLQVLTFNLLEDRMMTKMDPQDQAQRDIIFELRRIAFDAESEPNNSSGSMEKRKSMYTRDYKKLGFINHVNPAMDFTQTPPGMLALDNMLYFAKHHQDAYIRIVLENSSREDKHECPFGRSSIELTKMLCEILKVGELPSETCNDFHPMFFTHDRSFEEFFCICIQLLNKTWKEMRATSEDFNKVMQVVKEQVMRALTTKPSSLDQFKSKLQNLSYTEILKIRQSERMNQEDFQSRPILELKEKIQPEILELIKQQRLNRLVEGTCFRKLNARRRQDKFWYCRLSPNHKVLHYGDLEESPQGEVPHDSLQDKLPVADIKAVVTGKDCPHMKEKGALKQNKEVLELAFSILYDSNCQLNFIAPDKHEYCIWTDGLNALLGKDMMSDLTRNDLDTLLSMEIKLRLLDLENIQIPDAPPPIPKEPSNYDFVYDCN

In experiment [2] the target is T2, EGFP-SifA wild type (Salmonella) (UniProt Q56061).
T2 sequence: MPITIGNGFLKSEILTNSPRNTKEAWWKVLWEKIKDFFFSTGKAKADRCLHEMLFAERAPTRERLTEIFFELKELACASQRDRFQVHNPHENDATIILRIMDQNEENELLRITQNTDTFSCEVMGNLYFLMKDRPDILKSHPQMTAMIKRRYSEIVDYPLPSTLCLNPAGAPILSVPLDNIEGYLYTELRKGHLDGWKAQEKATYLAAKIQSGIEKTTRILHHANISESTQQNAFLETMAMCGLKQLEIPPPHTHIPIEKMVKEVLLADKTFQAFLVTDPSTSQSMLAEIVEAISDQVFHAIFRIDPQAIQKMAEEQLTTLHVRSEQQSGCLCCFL
Nature of the experiment: co-IP; HEK293 co-transfected with EGFP-SifA (WT or E201A) and FLAG-ELMO1; lysates precipitated with EGFP-conjugated beads; blot with anti-FLAG.

The next experiment concerns the target GST-IpgB2 (Shigella) (UniProt Q9AJW7). The experiment can be described thus: pull-down; GST, GST-IpgB1, GST-IpgB2 or GST-Map immobilised on glutathione-Sepharose beads, incubated with purified recombinant His-ELMO1 full length; bound ELMO1-FL seen by immunoblot; both purified.
Experiment [3] addresses T1, GST-SifA (Salmonella). Nature of the experiment: pull-down; GST-SifA immobilised on glutathione-Sepharose beads, incubated overnight at 4°C with lysates of J774 control or ELMO1 shRNA cells or of BMDM; washed with NETN buffer (300 mM NaCl); blot with anti-ELMO1; only the target purified.
The target of a further experiment is GST-ELMO1 (UniProt Q92556). Nature of the experiment: pull-down; GST-ELMO1 or GST alone immobilised on glutathione-Sepharose beads, incubated overnight at 4°C with purified His-SifA WT or E201A; GST wash buffer (100 mM NaCl); blot with anti-His; both purified.

No constants are given. Whether binding was seen depends on the method and setting. For some of these results: In cells and extracts the contact can be indirect. Some binding calls cover weakened binding; strength is not graded here. For some of these results: Where a sequence is shown, tags or fusion partners need not be part of it.

As for “FLAG tagged ELMO1-full length (FL) (aa 1-727) (from UniProt Q92556 1-727)”, the binding result (with GST-SifA (Salmonella) [1]; in experiment [2]) was “binds” each time.
In the case of “Recombinant His-ELMO1-full length (FL) (from UniProt Q92556 1-727)”, in the experiment with GST-IpgB2 (Shigella), the binding entry is recorded as “binds”.
With “endogenous ELMO1 of murine macrophages (from UniProt Q8BPU7 1-727)”, the binding entry in the experiment with GST-SifA (Salmonella) [3] is given as “binds”.
Take “FLAG tagged ELMO1- N terminal (NT) (aa-1-532) (from UniProt Q92556 1-532) (domain or fragment)”: the binding entry in the experiment with GST-SifA (Salmonella) [1] is “no binding”.
As for “FLAG tagged ELMO-1- C terminal (CT) (aa-532-727) (from UniProt Q92556 532-727) (domain or fragment)”, the binding result in the experiment with GST-SifA (Salmonella) [1] was “binds”.

B1: His-SifA WT (protein, UniProt Q56061 1-336)
chain: MPITIGNGFLKSEILTNSPRNTKEAWWKVLWEKIKDFFFSTGKAKADRCLHEMLFAERAPTRERLTEIFFELKELACASQRDRFQVHNPHENDATIILRIMDQNEENELLRITQNTDTFSCEVMGNLYFLMKDRPDILKSHPQMTAMIKRRYSEIVDYPLPSTLCLNPAGAPILSVPLDNIEGYLYTELRKGHLDGWKAQEKATYLAAKIQSGIEKTTRILHHANISESTQQNAFLETMAMCGLKQLEIPPPHTHIPIEKMVKEVLLADKTFQAFLVTDPSTSQSMLAEIVEAISDQVFHAIFRIDPQAIQKMAEEQLTTLHVRSEQQSGCLCCFL
With B1, the binding result with GST-ELMO1 was “binds”.

The values are drawn from publication PMC8565811.
